Assay results taken from the BET-seq Pho4 binding data (Le et al. 2018).
The list shows a part of the results. The energies were worked out here from pooled read counts, against the library average; single values are noisy.

What follows are sequences tested against T1, Pho4 (S. cerevisiae) (UniProt P07270) (assay: relative binding free energy (BET-seq); higher = weaker binding). Conditions: reference: library average.
T1 sequence: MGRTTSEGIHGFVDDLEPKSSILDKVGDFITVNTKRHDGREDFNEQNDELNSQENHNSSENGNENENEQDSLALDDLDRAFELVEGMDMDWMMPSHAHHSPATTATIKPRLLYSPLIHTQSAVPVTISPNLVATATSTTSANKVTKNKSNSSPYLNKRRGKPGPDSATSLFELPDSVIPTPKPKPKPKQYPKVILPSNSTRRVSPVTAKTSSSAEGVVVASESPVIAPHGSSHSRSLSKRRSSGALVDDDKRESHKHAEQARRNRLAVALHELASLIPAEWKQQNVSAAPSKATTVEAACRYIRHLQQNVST

| Sequence | relative binding free energy [kcal/mol] |
| --- | --- |
| TGTTGCACGTGCTAAT | 0 |
| TGGCTCACGTGGGGTC | 0.05 |
| ATGAACACGTGCAGGG | 0.08 |
| CCTGGCACGTGGGGCG | -0.23 |
| TAAATCACGTGGTTTG | 0.04 |
| GTGATCACGTGTTTGC | 0.15 |
| GAGGACACGTGGGAGT | -0.08 |
| AGGGACACGTGAGGCG | 0.1 |
| TTAGGCACGTGTTGGG | -0.06 |
| TTAAACACGTGTCGGG | 0.02 |
| AGTAGCACGTGTTTGC | -0.15 |
| GGGGACACGTGAGGTA | 0.16 |
| GTACTCACGTGGGGGT | 0.06 |
| TTGGACACGTGGCTAT | 0.03 |
| GCATGCACGTGGATGG | -0.08 |
| TGAAACACGTGGACGT | 0.19 |
| AAATTCACGTGTGGTC | 0.19 |
| TTTTTCACGTGTAATA | 0.26 |
| GTAGGCACGTGCATGG | -0.04 |
| TCGTACACGTGGAGGG | -0.07 |
| CTTGCCACGTGTATGG | -0.02 |
| ATAGTCACGTGCCAGG | 0.15 |
| TCTCGCACGTGAGGTT | 0.1 |
| AATTTCACGTGGGATG | 0.32 |
| TGCGACACGTGTATAT | 0.22 |

| Sequence | relative binding free energy [kcal/mol] |
| --- | --- |
| GGTGGCACGTGTGAGT | 0.07 |
| GTGGACACGTGTACAG | 0.15 |
| TTTTGCACGTGGATAG | 0.02 |
| GTTAGCACGTGAACTG | 0.47 |
| GATGCCACGTGTTGGA | 0.05 |
| GGGACCACGTGTTGTG | 0.02 |
| TTTCGCACGTGGTGTA | -0.16 |
| TTTTTCACGTGAATGC | 0.51 |
| TGTAACACGTGTTAAG | -0.17 |
| TAAGTCACGTGGCGGG | -0.01 |
| GAGATCACGTGAGGCG | 0.39 |
| TGCGTCACGTGGTTGG | 0.13 |
| TCGTTCACGTGTGTAG | 0.2 |
| ATGAACACGTGCTGGT | -0.1 |
| TAAGGCACGTGTTGTT | -0.11 |
| GATGTCACGTGGTTGT | 0.15 |
| TGGAACACGTGGGTTG | -0.11 |
| TCGAGCACGTGGGGGT | -0.29 |
| AGGGTCACGTGGAGGT | 0.12 |
| TGTACCACGTGTGGTC | -0.03 |
| TTAGACACGTGTTCGG | 0.01 |
| AAATGCACGTGGTGGC | -0.03 |
| AGTCCCACGTGGTTGT | -0.07 |
| GTATACACGTGTCTTT | 0.06 |
| GGGGGCACGTGTGTAG | -0.04 |

| Sequence | relative binding free energy [kcal/mol] |
| --- | --- |
| TTTGCCACGTGATTGG | 0.01 |
| GCTTGCACGTGTTTGG | 0.09 |
| TGGATCACGTGTCTGG | 0.12 |
| TAGTGCACGTGGTCTT | -0.27 |
| TGCTTCACGTGTAAAT | 0.33 |
| TGGCTCACGTGTGAAG | 0.35 |
| TAGGTCACGTGATTCT | 0.26 |
| AGCAGCACGTGTGTTG | -0.07 |
| TAATGCACGTGTGAAA | 0.16 |
| GTGGACACGTGGGTTA | -0.01 |
| TGTAGCACGTGGTGAC | -0.19 |
| AGAAGCACGTGTGCGG | -0.13 |
| GCTGACACGTGGGTTG | 0.03 |
| TTCATCACGTGTTAAA | 0.31 |
| GTTTTCACGTGTATGG | 0.24 |
| GCCTTCACGTGGCGGT | 0.43 |
| GGGAGCACGTGCATGT | -0.11 |
| AATTCCACGTGGTTTG | 0.1 |
| TTGAACACGTGTGTTG | 0.05 |
| GTGTGCACGTGTTAAC | 0.02 |
| TGGCACACGTGTATTT | 0.03 |
| GACGTCACGTGGTGGA | 0.12 |
| TGAATCACGTGACGGG | 0.27 |
| GTGTGCACGTGCGTAG | -0.1 |
| AGGGGCACGTGTTAAC | -0.04 |

| Sequence | relative binding free energy [kcal/mol] |
| --- | --- |
| TGTTCCACGTGCAGGG | 0.07 |
| AGGATCACGTGCTGGT | -0.03 |
| TGTATCACGTGAGGGG | 0.29 |
| GTGGACACGTGCAGGA | 0.1 |
| AACAGCACGTGTTGTG | -0.09 |
| TATTCCACGTGAGGTG | 0.23 |
| GTATGCACGTGGGCTT | -0.15 |
| GGGTGCACGTGTAGAC | 0.02 |
| TTATTCACGTGGGTGG | 0.09 |
| TTATGCACGTGGAGTC | -0.01 |
| TAAGTCACGTGGAGCT | 0.19 |
| CTCTTCACGTGGGTTG | 0.16 |
| TTAATCACGTGTTCGA | 0.18 |
| TTGTACACGTGGCGGT | 0.06 |
| TGCCACACGTGGTGGT | -0.02 |
| GATTACACGTGGAGTA | 0.25 |
| TTAGTCACGTGTACGT | 0.12 |
| TTATGCACGTGGGCAT | -0.15 |
| GGGATCACGTGTAAGT | 0.19 |
| TGGGGCACGTGGGTCG | -0.1 |
| CTGGTCACGTGTTGAT | 0.15 |
| TACTGCACGTGTGTGT | -0.09 |
| CGAGGCACGTGAGGGA | 0.17 |
| AAGGTCACGTGTAATG | 0.18 |
| TATGTCACGTGGAAGC | 0.24 |

| Sequence | relative binding free energy [kcal/mol] |
| --- | --- |
| ATAAGCACGTGGCGTT | -0.15 |
| CTTGACACGTGTGGCG | 0.04 |
| AACAGCACGTGGGGGG | -0.2 |
| GACGTCACGTGGGGGC | 0.02 |
| TGAGGCACGTGTCATG | -0.16 |
| GCGATCACGTGGGTGA | 0.02 |
| TATATCACGTGGGATA | 0.07 |
| ATGAGCACGTGGCTGT | -0.14 |
| GATGGCACGTGTGGAG | -0.09 |
| AAAATCACGTGGGAGT | 0.2 |
| TTAGACACGTGTAGGG | 0.14 |
| CATATCACGTGGTATT | 0.02 |
| AATTACACGTGGGCGG | -0.11 |
| ATGATCACGTGGGTCT | -0.09 |
| GCTTTCACGTGTTATA | 0.39 |
| GTCGTCACGTGAGATG | 0.28 |
| TTGATCACGTGTAGCT | 0.09 |
| TGTGACACGTGTATGT | -0.02 |
| TGCGTCACGTGGCCGT | -0.04 |
| CTGTTCACGTGGGGCG | 0.09 |
| ACTGTCACGTGAGGGG | 0.29 |
| AGGGGCACGTGCATTG | -0.18 |
| GTCATCACGTGATGGG | 0.27 |
| AGGAACACGTGGTATT | -0.01 |
| ACATTCACGTGTGTTT | 0.22 |

| Sequence | relative binding free energy [kcal/mol] |
| --- | --- |
| TGTGCCACGTGGCTTT | -0.09 |
| TGTCACACGTGAGGAG | 0.2 |
| ACGAGCACGTGGTTGG | -0.14 |
| TAATTCACGTGTTCGT | 0.26 |
| GTTGTCACGTGCGTCT | 0.06 |
| GTTCTCACGTGTTCTT | 0.3 |
| GTTGACACGTGGAGTA | 0.03 |
| GGTGTCACGTGTCGTA | 0.14 |
| GGTATCACGTGGCAGT | 0.05 |
| AGGTGCACGTGGCCGT | -0.18 |
| CGGTACACGTGGGTAG | -0.06 |
| TGGTGCACGTGGTAAC | -0.05 |
| TAATACACGTGAAAGG | 0.35 |
| GGGGACACGTGGTAAG | 0.09 |
| GTATGCACGTGGAGCG | 0 |
| TGAGTCACGTGCTGTA | 0.07 |
| CGTGTCACGTGGTACT | 0 |
| CTACTCACGTGGTGGT | 0.14 |
| AGAGGCACGTGGTACT | -0.23 |
| TTGGGCACGTGGAGAT | -0.07 |
| ATGGCCACGTGGGGAT | -0.15 |
